Laboratory results as given in PubChem BioAssay (NCI).
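Where inhibition never reached the appropriate level, the endpoint shown equals the highest concentration tested. Otherwise, values were interpolated linearly from a five-concentration, 48-hour dose response in 96-well plates. GI50: concentration for 50% inhibition of growth. Definition used: TGI = concentration required for complete inhibition of growth.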

tested on: NCI-H322M lung; assay: inhibition of tumour cell growth, NCI panel, 48 h

| SMILES | GI50 | TGI |
| --- | --- | --- |
| CN1CCN(c2ccc3c(c2)nc(NNC(=O)c2ncccn2)c2cccn23)CC1 | 0.357 µM | 4.21 µM |
| N#CC1=C(c2cccs2)Nc2c(c(-c3ccccc3)nn2-c2ccccc2)C12C(=O)Nc1ccc(Cl)cc12 (stereo not given) | 13 µM | 31.1 µM |
| CCOP(=O)(OCC)O[C@H]1CC[C@]2(C)[C@H]3CC[C@@H]4[C@@H]([C@](C)(O)CCC=C(C)C)CC[C@@]4(C)[C@]3(C)CC[C@H]2C1(C)C | 14.9 µM | 28.6 µM |
| O=C(COc1ccc(NC(=O)Nc2ccc(Cl)c(Cl)c2)cc1)N=Nc1c(O)[nH]c2ccc(Br)cc12 | 2.04 µM | 4.72 µM |
| O=C(c1ccc(Cl)cc1)C(c1c[nH]c2ccccc12)c1c[nH]c2ccccc12 | 12.1 µM | 24.6 µM |
